# Results reported in the supplement of paper PMC3334620.
# Over roughly 33,000 sequences, “E-score (-0.5 to 0.5)” has its median near -0.054; the highest 2% begin near 0.35. The list shows a part of the results.
# Target: T1, Stb5 (UniProt P38699)
# T1 sequence: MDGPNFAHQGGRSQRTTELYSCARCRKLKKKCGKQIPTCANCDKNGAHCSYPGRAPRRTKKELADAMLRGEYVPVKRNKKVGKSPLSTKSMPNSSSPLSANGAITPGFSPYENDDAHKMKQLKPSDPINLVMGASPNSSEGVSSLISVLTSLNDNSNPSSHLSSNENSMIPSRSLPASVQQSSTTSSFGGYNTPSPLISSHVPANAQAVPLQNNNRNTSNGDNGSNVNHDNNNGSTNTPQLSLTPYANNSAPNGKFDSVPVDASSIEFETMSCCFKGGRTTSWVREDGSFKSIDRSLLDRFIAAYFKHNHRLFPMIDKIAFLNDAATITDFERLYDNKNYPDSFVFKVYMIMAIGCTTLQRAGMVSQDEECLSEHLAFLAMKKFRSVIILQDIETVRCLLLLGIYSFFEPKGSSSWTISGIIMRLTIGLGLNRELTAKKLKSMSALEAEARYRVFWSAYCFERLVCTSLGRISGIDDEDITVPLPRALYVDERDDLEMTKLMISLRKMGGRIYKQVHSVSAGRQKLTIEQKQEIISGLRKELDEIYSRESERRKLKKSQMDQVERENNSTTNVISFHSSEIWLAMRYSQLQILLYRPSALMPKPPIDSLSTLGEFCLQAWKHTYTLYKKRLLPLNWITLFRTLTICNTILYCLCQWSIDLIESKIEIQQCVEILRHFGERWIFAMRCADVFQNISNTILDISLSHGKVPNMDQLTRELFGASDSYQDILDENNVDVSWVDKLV
# Test: PBM E-score (8-mer binding enrichment) (E-score (-0.5 to 0.5)); higher = stronger / more preferred TF binding; most listed sequences are background and not binding sites
# Conditions: protein concentration: 200 nM; construct: GST-full length
# Method in brief: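 PURExpress in vitro transcription/translation supplied GST-tagged yeast transcription factors, either full-length or DNA-binding domain. Applied at about 100-200 nM to universal all-10-mer Agilent arrays double-stranded by primer extension, the bound protein was detected with fluorescent anti-GST. E-scores, modified Wilcoxon-Mann-Whitney statistics, were given by the Universal PBM Analysis Suite to ungapped eight-base words pooled with their reverse complements after masliner normalisation.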
row,Sequence,PBM E-score
1,GACTTTGA,-0.0643
2,ATAATATC,0.154
3,CTATTGGA,-0.13
4,CTAGGGAA,-0.00814
5,CTCGACAC,-0.052
6,ACATGCAC,-0.231
7,GACAGCCC,0.0224
8,CCGTAGGC,0.175
9,GTCACCGA,0.285
10,GGATAGTA,0.112
11,CTGATTAC,-0.0945
12,TATTAGCA,-0.0828
13,AAGTAGAT,-0.0908
14,ACGATGCG,-0.0816
15,CGCTCACG,0.121
16,ACTGCCTG,-0.299
17,ACGTGAAT,-0.146
18,AACGTACG,-0.103
19,GCGGCTAC,0.192
20,CGTCTACC,-0.0293
21,AGGTGGAC,-0.191
22,GTTCCGCA,0.19
23,GAACGGTA,0.212
24,ATCTTGAC,-0.254
25,AATTGGCA,-0.187

row,Sequence,PBM E-score
1,AGGGGTTC,-0.15
2,CCAGTACA,-0.234
3,CGTGAATC,-0.0474
4,GGTCCAGA,-0.0181
5,GATGTCGC,-0.00661
6,CTCATACC,0.0707
7,GATTGGGA,-0.238
8,CTGGTGGC,-0.248
9,CGCTAGTA,0.26
10,GCTTCACA,-0.172
11,AATCTCAG,-0.281
12,ACTTCTTG,-0.0308
13,GCGAGCAC,-0.0442
14,GCTCAAAC,0.189
15,AGTCGCAT,-0.16
16,ATTATGAA,0.0321
17,CGTTTTCA,0.127
18,GTGTTCGA,-0.101
19,AAACGTCC,-0.0079
20,CCGCCCCG,0.409
21,ATAAAATA,0.0226
22,CCTATAAA,0.022
23,CGGGAAAA,0.282
24,GCCGGCGA,0.259
25,GACAACAA,-0.16

row,Sequence,PBM E-score
1,AGCGGAAG,0.137
2,AGAGATAT,-0.194
3,AGTGAAGA,-0.155
4,AATTTTCC,0.167
5,GAGTGCAC,-0.125
6,GGGAGCCC,-0.0225
7,AACATTTA,-0.0512
8,AGCCATGA,-0.0944
9,CAGATTAG,-0.16
10,TAACTTCA,-0.0957
11,AAAGAACA,-0.172
12,CTGTTGTA,-0.0921
13,CCGCGCAC,0.24
14,AATCAAAA,-0.0569
15,GAGGCAGA,-0.0954
16,CAATTAAC,0.0512
17,CCCGCCGG,0.39
18,ACGTAGTC,-0.0657
19,ACGCAGCC,-0.123
20,AAATTAGT,-0.012
21,AAAAGCCG,0.38
22,CCAGTGCC,-0.123
23,ATTTTGCA,-0.0801
24,AGCCGTAT,-0.132
25,GACCGGCC,0.29

row,Sequence,PBM E-score
1,TCAATGGA,-0.0639
2,GGTCGTGA,-0.133
3,ATACTTTG,-0.249
4,GAGAACCC,-0.153
5,AGATGCAG,-0.308
6,AATTATCT,-0.0807
7,CTCTTATA,0.142
8,CAGTGCAC,-0.0219
9,GACCCCAC,-0.112
10,ACCTGACC,-0.194
11,AAAAACAC,-0.0126
12,AAATTGTG,-0.306
13,AAGGCTGA,-0.214
14,AAGAACAC,-0.125
15,ACCGAACT,0.176
16,CTGGTTTC,-0.175
17,AGCACAAC,0.0407
18,ATTCGATG,-0.0293
19,ATCGCTCA,-0.294
20,ATTTGAGC,-0.024
21,ACAGCCCA,-0.263
22,CATAGGTA,-0.176
23,ATGACATA,-0.234
24,CCGACCGG,0.382
25,CGATGCAA,0.137

row,Sequence,PBM E-score
1,AGTGTGCA,-0.309
2,CAAGACGA,-0.175
3,CTGGCGGC,0.341
4,ACGTTGAT,-0.261
5,GTAGCGTA,-0.00685
6,AGGCCACA,-0.234
7,AGGTAATA,0.21
8,GTGGCCCA,-0.121
9,ATCCCTCG,-0.0782
10,AGTTCACC,0.0469
11,CGTGATAA,0.0332
12,GAGGCCAC,-0.226
13,CCTCACAG,-0.191
14,GTTTGGTA,0.0996
15,ATTCTTCG,-0.0834
16,CTGCATAA,-0.087
17,AAAGCCTT,-0.226
18,CAATGATA,-0.0649
19,CACGCTGA,-0.0562
20,CAGCGCAG,-0.0462
21,CAAGACCC,0.108
22,AAGACTCG,-0.125
23,CCGCGGCG,0.322
24,GACGCCTA,0.0029
25,CCAGTGAA,-0.105

row,Sequence,PBM E-score
1,CAAAAGCC,0.16
2,CGATTGTC,0.0331
3,AATACAGC,0.00825
4,CTGATCGA,-0.199
5,TCCCCAAA,-0.29
6,ACTTCATC,-0.126
7,AGGTCGTG,-0.223
8,GAAGGTAC,-0.158
9,ATGCGCCG,0.195
10,CAGGAGCC,-0.231
11,AGTGCGCA,0.0819
12,ACTACGAT,-0.217
13,AGGTTGGC,-0.163
14,GTGGCACA,-0.325
15,AGTGTACC,-0.219
16,CTGGTTCC,-0.176
17,GCCGGCGC,0.337
18,CTTTTTTC,-0.172
19,CCGATGAA,0.251
20,TAGCCCGA,0.171
21,AGAGTCCT,-0.216
22,GATCCTGC,-0.0268
23,CACTTATG,0.177
24,GACCCAGA,0.0755
25,CCCGAAGC,0.133

row,Sequence,PBM E-score
1,TACTGCCA,-0.141
2,TCTTCTCA,-0.12
3,CGCGGGAG,0.105
4,ATTAAAAC,0.15
5,GCGCCAAC,-0.0401
6,ACCAGAGT,-0.0938
7,AACAGACA,-0.113
8,AACAGCAG,-0.0535
9,AGATGCAA,-0.355
10,CAATTCCG,0.0951
11,GACAGACC,-0.135
12,AGATTCTC,-0.111
13,CGTATCAA,-0.176
14,GCACTTGA,-0.0427
15,CTGATCAG,0.0278
16,AACAATAG,-0.106
17,ATCACGAC,-0.274
18,TGATTCCA,-0.287
19,ATGCGCTC,-0.0929
20,ACACCTTA,-0.0514
21,CACATGTC,-0.124
22,ATTGTCGA,-0.0381
